Laboratory results as given in PubChem BioAssay AID686978 (National Center for Advancing Translational Sciences (NCATS), 2013).
The whole screen tested about 420,000 compounds, of which about 64,000 (15%) were called active. The inconclusive results got no clear call from the source; some entries with a clear call stand among them for comparison. Calls follow the shape of the dose curve; as a rule, active = well fitted inhibition curve with a large enough effect; inconclusive = small, poorly fitted or top-dose-only effect; inactive = flat fitted curve, though single readings scatter. No potency is given beside an inconclusive call; the fits are too rough.

Test: qHTS for Inhibitors of human tyrosyl-DNA phosphodiesterase 1 (TDP1): qHTS in cells in absence of CPT; also: nearly all actives have a fitted effect of over 55% in size
Conditions: DT40 Tdp1-/- hTDP1 cells, no CPT, ATP luminescence, 48 h; activity change, negative = growth inhibition: at 46.2 µM (top of the series) unless noted
Procedure, shortened: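 Luminescent ATP content (CellTiter-Glo) served as the growth readout. Knockout chicken DT40 cells expressing human TDP1 were exposed to compounds without camptothecin for a minimum 48 hr at 37 °C.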
% is scaled to controls: 0 for no effect and ±100 for the full control effect; potency is read from the fitted curve at half-maximal effect; tags tell the direction and shape of the fitted curve.

| SMILES | Potency | activity change, negative = growth inhibition |
| --- | --- | --- |
| O=c1c2ccccc2oc2cc(-c3ccc4cc[nH]c4c3)ccc12 | inconclusive [inhibitor, single point] | – |
| Cc1cc(C)c(C(N)=O)c(Nc2ccc3c(c2)OCCO3)n1 | active: 7.31 µM | – |
| COc1cccc(CN(C)Cc2nc3cc(C(F)(F)F)ccc3c(=O)[nH]2)c1 | inconclusive [inhibitor, single point] | – |
| C[C@]1(C(=O)NCc2cc(F)cc(C(F)(F)F)c2)C=C[C@@H](Cc2ccccc2)N1C(=O)c1ccccc1 | inconclusive [inhibitor, single point] | – |
| COC(=O)c1ccc(NC(=S)NC2CCc3ccccc32)cc1 (centres undefined) | – | inactive: -0.546% |
| O=C(COC(=O)c1cccnc1Cl)NC(=O)NC1CCCCC1 | – | inactive: -9.72% |
| CCC(CC)c1nnc(NC(=O)c2cccc(S(=O)(=O)N3CCOCC3)c2)s1 | – | inactive: -27.3% |
| Clc1ccc(-c2noc(CN3CCN(c4ccccc4)CC3)n2)cc1 | inconclusive [inhibitor, full curve] | – |
| CS(=O)(=O)N(CC(=O)Nc1cccc(Br)c1)Cc1ccccc1 | inconclusive [inhibitor, single point] | – |
| COc1ccc(C)cc1NC(=O)c1cccc(C(=O)Nc2cc(C)ccc2OC)c1 | active: 10.3 µM | – |
| C/C(=N\Nc1ccc(Cl)nn1)c1ccccc1O | active: 0.58 µM | – |
| COc1cccc(CNC(=O)N[C@@H](C)C(=O)O)c1 | – | inactive: -4.92% |
| N#CC(C#N)=C1C=CC=CN1/C(=C\c1ccccc1Cl)C(=O)c1ccccc1 | active: 1.16 µM | – |
| Cc1ccc(S(=O)(=O)c2nc(NN(C)C)sc2Cl)cc1 | inconclusive [inhibitor, partial curve] | – |
| CCN(CC)CCNC(=O)c1ccc2c(c1)NC(=O)c1ccccc1S2 | inconclusive [inhibitor, single point] | – |
| CC1CC(C)CN(S(=O)(=O)CC23CCC(CC2=O)C3(C)C)C1 (centres undefined) | – | inactive: -17.9% |
| CC(C)CC1C(=O)N(Cc2cn(CCC3OCCCO3)nn2)CCS(=O)(=O)N1Cc1ccc(-c2cccc(CO)c2)cc1 (centres undefined) | inconclusive [inhibitor, single point] | – |
| CCOC(=O)C1(Cc2cccc(OC)c2)CCCN(C(=O)CCSC)C1 (centres undefined) | – | inactive: -24.5% |
| COc1ccc(OCCN2CCC(C(=O)NC(c3ccccc3)c3ccc4ccccc4n3)CC2)cc1 (centres undefined) | inconclusive [inhibitor, partial curve, poor fit] | – |
| CC(C)(C)NC(=S)N1CCC(C(=O)c2ccc(F)cc2)CC1 | – | inactive: 5.86% |
| O=C(CCC(=O)Nc1ccccc1Cl)NN=C1CCCC1 | – | inactive: 20.5% |
| CCOc1ccccc1NC(=O)CSc1nc2cc(OC)c(OC)cc2c2nc(-c3ccccc3)nn12 | – | inactive: 6.59% |
| CN1CCN(S(=O)(=O)c2cccc(C(=O)N(C)C(c3ccccc3)c3ccccc3)c2)CC1 | inconclusive [inhibitor, single point] | – |
| COc1cc(NC(=O)c2cccc3c2C(=O)N(C2CCCCC2)C3)cc(OC)c1 | inconclusive [inhibitor, partial curve] | – |
| Cc1ccc2cc(C3CC(c4ccco4)=NN3C(=O)CCCC(=O)O)c(Cl)nc2c1 (centres undefined) | inconclusive [inhibitor, single point] | – |

| SMILES | Potency | activity change, negative = growth inhibition |
| --- | --- | --- |
| CCn1c(=O)c(C(=O)Nc2ccc(C(C)=O)cc2)nc2ccccc21 | – | inactive: -13.8% |
| Cc1cc(NCCN2CCOCC2)c2ccc3ccccc3c2n1 | inconclusive [inhibitor, single point] | – |
| O=C(COC(=O)c1cc[n+]([O-])cc1)Nc1cc([N+](=O)[O-])ccc1Cl | – | inactive: -15% |
| CCOC(=O)C1CCCN(CC(=O)/C=C2/N(C)c3ccccc3C2(C)C)C1 (centres undefined) | active: 13 µM | – |
| CCOc1ccccc1N(C)C(=O)Cn1ncc2c([nH]c3ccccc32)c1=O | inconclusive [inhibitor, single point] | – |
| CCOc1ccc2nc(SCc3ccccc3C#N)sc2c1 | inconclusive [inhibitor, single point] | – |
| c1ccc(-c2nc(NCC3CCCO3)c3oc4ccccc4c3n2)cc1 (centres undefined) | inconclusive [inhibitor, single point] | – |
| COc1cc(N(C(C)=O)c2ccc(O)c(C(=O)O)c2)c2ncccc2c1 | – | inactive: -21.4% |
| COc1ccc(C2Nc3ccccc3C(=O)N2c2ccc(F)cc2)cc1CSc1ccccn1 (centres undefined) | – | inactive: -33.4% |
| O=C1N=C(N2CCCC2C(=O)O)S/C1=C\c1ccco1 (centres undefined) | active: 18.4 µM | – |
| COc1cccc(N2CCN(C(=O)CCCCCn3c(=S)[nH]c4cc5c(cc4c3=O)OCO5)CC2)c1 | inconclusive [inhibitor, partial curve] | – |
| O=C(CNS(=O)(=O)c1ccccc1)Nc1ccc(C(F)(F)F)cc1 | active: 16.4 µM | – |
| CCOc1ccc(NC(=O)CN(C)C(=O)CCSc2ccc(F)cc2)cc1OCC | – | inactive: -17.2% |
| CCOC(=O)Nc1ccc2c(COC(=O)c3ccccc3O)cc(=O)oc2c1 | inconclusive [inhibitor, partial curve] | – |
| CN1OC[C@@H]2CN[C@H](c3cccc(-c4cc(Cl)cc(Cl)c4)c3)C[C@@H]21 | inconclusive [inhibitor, single point] | – |
| O=C1CN(S(=O)(=O)c2ccccc2)CCN1 | – | inactive: -5.55% |
| COc1cc(C(=O)Nc2nc3ccc(S(C)(=O)=O)cc3s2)cc(OC)c1C | inconclusive [inhibitor, partial curve] | – |
| Cn1nc(C(=O)N2CCC(C(N)=O)CC2)c2c1-c1ccccc1SC2 | inconclusive [inhibitor, single point] | – |
| CCn1c(/C=C/c2ccccc2)nc2ccccc2c1=O | inconclusive [inhibitor, single point] | – |
| COc1ccc(N2CCN(C(=O)c3cc(-c4cc(OC)ccc4OC)nc4ccccc34)CC2)cc1 | active: 23.1 µM | – |
| CCCNC(=O)COc1coc(CN2CCN(c3cccc(Cl)c3)CC2)cc1=O | – | inactive: -29.8% |
| COc1ccc(/C=C/C(=O)Oc2ccc(/C=N/NC(=O)c3ccncc3)cc2)cc1 | – | inactive: -2.29% |
| CCCCC(=O)NC(c1ccccc1Cl)c1c(O)ccc2ccccc12 (centres undefined) | inconclusive [inhibitor, single point] | – |
| Cc1ccc2[nH]c(=O)c(CN(Cc3cccnc3)Cc3nnnn3CC3CCCO3)cc2c1 (centres undefined) | – | inactive: 24.7% |
| COCCCNc1oc(-c2cccs2)nc1S(=O)(=O)c1ccc(C)cc1 | – | inactive: -20.3% |

| SMILES | Potency | activity change, negative = growth inhibition |
| --- | --- | --- |
| COc1cc(NC(=O)c2c(F)c(F)c(F)c(F)c2F)c(OC)cc1Cl | inconclusive [inhibitor, single point] | – |
| C=CCOc1c(Br)cc(/C=C(\C#N)C(N)=O)cc1OC | inconclusive [inhibitor, single point] | – |
| Cn1ccc(NC(=O)c2ccc(Cl)cc2)n1 | – | inactive: 21.9% |
| O=[N+]([O-])c1ccc(CSc2ccc(S(=O)(=O)N3CCOCC3)cn2)cc1 | inconclusive [inhibitor, single point] | – |
| COc1ccc(NC(=O)c2sc3nc(-c4ccc(OC)cc4)cc(C(F)(F)F)c3c2N)cc1 | active: 1.84 µM | – |
| CC(C)C(OC(=O)C1=Cc2ccccc2OC1)C(=O)NCC1CCCO1 (centres undefined) | – | inconclusive: -32.2% [inhibitor] |
| O=S(=O)(c1cccs1)N1CN(Cc2ccc(F)cc2)c2nc3ccccc3nc21 | inconclusive [inhibitor, single point] | – |
| CCn1c(SCC(=O)NC2CCCC2)nnc1C(C)NC(=O)c1ccccc1F (centres undefined) | – | inactive: 12.3% |
| COc1ccc(OC)c(/C=C/C(=O)OCC(=O)N2CCCCC2)c1 | – | inactive: -14.3% |
| COc1ccccc1OCCSc1nc2ccccc2n1CC(=O)N1CCOCC1 | inconclusive [inhibitor, partial curve] | – |
| C#CCSc1nc2sc3c(c2c(=O)n1Cc1ccccc1)CCCC3 | inconclusive [inhibitor, single point] | – |
| CC(=O)Nc1ccc(S(=O)(=O)c2ccnc3cc(Cl)ccc23)cc1 | active: 9.2 µM | – |
| CSCCC(NC(=O)COc1ccccc1)C(=O)N1CCN(c2ccccc2)CC1 (centres undefined) | – | inconclusive: -34.6% [inhibitor] |
| C=CCSc1nc2c(c(=N)n1CC=C)C1CCCC1S2 (centres undefined) | inconclusive [inhibitor, partial curve] | – |
| O=C(C=Cc1ccccc1)c1c[nH]c2ccccc2c1=O | active: 6.51 µM | – |
| Cc1cc(/C=C2/SC(=O)NC2=O)c(C)n1-c1ccc(N2CCOCC2)cc1 | inconclusive [inhibitor, partial curve, poor fit] | – |
| CC(C)(O)c1[nH]c2cc(C(F)(F)F)ccc2c1C(C)(C)O | – | inactive: -29.8% |
| COc1ccc([N+](=O)[O-])cc1NCC(=O)c1ccc(C)cc1 | – | inactive: -24.8% |
| Cc1cc(C)c(OCC(=O)Nc2ccccc2N2CCCCC2)c(C)c1 | inconclusive [inhibitor, single point] | – |
| CC(=O)c1ccc(F)c(-c2cc(C)cc3c2OC(CNC(=O)c2cccnc2)C3)c1 (centres undefined) | inconclusive [inhibitor, partial curve, poor fit] | – |
| Cc1cc([N+](=O)[O-])ccc1NC(=O)CN1C2CCC1CC(NC(=O)NC13CC4CC(CC(C4)C1)C3)C2 (centres undefined) | active: 5.17 µM | – |
| Cc1ccc(S(=O)(=O)n2[nH]c(=O)c(CCO)c2C)cc1 | – | inactive: -7.43% |
| CC(C)Oc1ccc(F)cc1-c1cc(C(=O)NCc2ccc(F)cc2)[nH]n1 | inconclusive [inhibitor, single point] | – |
| COc1ccccc1C(=O)N/C(=C\c1cn(S(=O)(=O)N(C)C)c2ccccc12)C(=O)NCCN1CCOCC1 | inconclusive [inhibitor, single point] | – |
